Laboratory results published in the supplement of paper PMC3334620.
Whole data set: some 33,000 sequences, median “E-score (-0.5 to 0.5)” near -0.011, cut for the highest 2% near 0.28. The list shows a part of the results.

biological target: T1, Gcr1 (UniProt P07261); assay: PBM E-score (8-mer binding enrichment) (E-score (-0.5 to 0.5)); higher = stronger / more preferred TF binding; most listed sequences are background and not binding sites; conditions: protein concentration: 100 nM; construct: GST-full length
T1 sequence: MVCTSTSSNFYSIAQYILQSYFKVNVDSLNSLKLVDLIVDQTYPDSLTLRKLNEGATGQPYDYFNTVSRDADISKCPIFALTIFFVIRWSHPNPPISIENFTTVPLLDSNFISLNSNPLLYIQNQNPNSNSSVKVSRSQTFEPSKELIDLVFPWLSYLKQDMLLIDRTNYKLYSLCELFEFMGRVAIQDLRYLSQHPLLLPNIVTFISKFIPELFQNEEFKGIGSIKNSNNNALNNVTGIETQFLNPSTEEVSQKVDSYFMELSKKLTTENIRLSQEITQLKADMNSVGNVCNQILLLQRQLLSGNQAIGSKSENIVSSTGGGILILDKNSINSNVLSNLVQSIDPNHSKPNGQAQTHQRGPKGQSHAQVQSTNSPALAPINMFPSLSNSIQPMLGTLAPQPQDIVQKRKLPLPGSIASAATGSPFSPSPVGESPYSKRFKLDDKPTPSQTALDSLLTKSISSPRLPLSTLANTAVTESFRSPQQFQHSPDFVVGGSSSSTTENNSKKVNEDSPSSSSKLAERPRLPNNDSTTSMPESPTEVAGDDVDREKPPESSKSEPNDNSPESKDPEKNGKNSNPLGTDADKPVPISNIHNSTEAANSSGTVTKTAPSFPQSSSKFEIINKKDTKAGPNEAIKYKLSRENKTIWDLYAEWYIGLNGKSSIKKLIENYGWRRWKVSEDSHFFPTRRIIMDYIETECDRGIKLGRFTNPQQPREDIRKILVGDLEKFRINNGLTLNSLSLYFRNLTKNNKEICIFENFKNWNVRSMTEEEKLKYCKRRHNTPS
Outline: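 The E-score, a modified Wilcoxon-Mann-Whitney statistic, was computed by the Universal PBM Analysis Suite for every ungapped eight-base word pooled with its reverse complement. Scans behind it were normalised with masliner after bound GST-tagged yeast transcription factors were detected with fluorescent anti-GST. The proteins, at about 100-200 nM, had been applied to universal all-10-mer Agilent arrays made double-stranded by primer extension.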

| Sequence | PBM E-score |
| --- | --- |
| TATTGTAA | 0.00851 |
| TCACCTCA | -0.155 |
| ATTCGCCA | 0.096 |
| GCCAAGAC | -0.104 |
| CTGACCAC | -0.139 |
| CTTCGAGC | -0.0646 |
| AAAATCTC | -0.132 |
| GGTAGCCA | 0.274 |
| ACAAGACT | 0.0934 |
| CCCAGGGG | -0.102 |
| TATCGAGA | 0.0733 |
| AGAGCAGG | 0.0116 |
| AGATTGGC | -0.00448 |
| AAGGCCGC | -0.0941 |
| CAGGCACG | -0.0582 |
| CCCGCTCC | 0.0861 |
| ATAGCAAT | 0.0118 |
| AATGTTGC | -0.0406 |
| AAGTTGCG | 0.211 |
| CGGGGTTA | -0.0298 |
| GGTTGCGA | 0.231 |
| AGATGAAC | -0.0418 |
| ATGACCAG | 0.0279 |
| AAAATGTA | 0.0737 |
| ACGTTCGA | -0.284 |

| Sequence | PBM E-score |
| --- | --- |
| ATAGAGTG | -0.0126 |
| CTATATCA | -0.0714 |
| GGTGGACA | 0.04 |
| AAATTCGG | 0.071 |
| CTTGATTA | -0.125 |
| ACGGTTCG | -0.132 |
| CGACTCTC | -0.0599 |
| GAAAGACC | -0.162 |
| AAAATAGG | 0.335 |
| CCGGCGCC | 0.317 |
| GAGATGAA | -0.149 |
| GCTAGAGA | -0.0437 |
| AAGCCTCC | 0.132 |
| GTGACAAC | 0.108 |
| CTTTCATA | 0.0601 |
| CAGGATAC | 0.134 |
| AATCATAT | -0.242 |
| CTGTGTAA | -0.00263 |
| TAGGGAAA | 0.116 |
| ATGGGAAT | 0.0953 |
| GCATGCCA | -0.255 |
| TCGTCCAA | 0.0652 |
| CAAAGGCA | -0.0313 |
| TATTTTGA | 0.0187 |
| GCCATTTA | -0.00671 |

| Sequence | PBM E-score |
| --- | --- |
| CAGCATCA | -0.00923 |
| CTATCATA | 0.0505 |
| AAACGACT | -0.0932 |
| CCCATTTC | -0.0272 |
| AAATAGCT | -0.13 |
| GTGCGCTA | 0.0787 |
| CTGTTCAA | 0.046 |
| CACGCTTC | 0.129 |
| TTCCCCAA | 0.0531 |
| ACTATACT | -0.118 |
| CAAGTTAA | 0.131 |
| GCGAATAC | 0.219 |
| AACAATGG | -0.0155 |
| AACTCAAT | 0.158 |
| CCCAGCAG | 0.0849 |
| AACTGGCA | 0.0707 |
| CCGCATGC | -0.0758 |
| CGGTACCC | 0.0751 |
| CTGCATAC | -0.0336 |
| CCGTCCCC | 0.00017 |
| ATACTTTA | 0.0558 |
| ATCTCTAG | -0.129 |
| AATGTTCG | -0.241 |
| CCAGGCCA | -0.177 |
| TAGACAAA | -0.0792 |

| Sequence | PBM E-score |
| --- | --- |
| GAGAGGCC | -0.124 |
| AATTGTGT | 0.00335 |
| GGTTGATA | 0.14 |
| AGGACGAG | -0.073 |
| AAAGTGGA | 0.24 |
| ACTCATAT | -0.0256 |
| CATTTACA | -0.0327 |
| CGCGCTTA | -0.0607 |
| CTAGTTTA | 0.00723 |
| GAAAGGTC | -0.172 |
| GCATGTTA | -0.133 |
| CGTGTTAG | -0.144 |
| CTTTGCGA | 0.0341 |
| AAGGCCTA | -0.182 |
| ACCCTCTG | 0.0165 |
| ACTTGACG | -0.152 |
| ATAAGTTG | 0.225 |
| CTAAAGCC | -0.155 |
| ATCAACAA | -0.0486 |
| ACGATGCC | 0.213 |
| AACTACCT | 0.125 |
| ATACGGTG | 0.251 |
| CCGGTAAC | 0.0844 |
| GCGCAACA | -0.0522 |
| ACGACGTA | -0.0831 |

| Sequence | PBM E-score |
| --- | --- |
| CCGACACC | 0.108 |
| ATGAAATG | 0.104 |
| GCGTCTTA | 0.239 |
| GGCTGAAC | -0.236 |
| GTACGTGA | -0.119 |
| AGGAAGTG | 0.213 |
| GGCGGGTA | -0.141 |
| AAGGATGT | 0.0399 |
| AGTTCATC | -0.00686 |
| AATGATTA | 0.064 |
| AAGGATCC | 0.187 |
| GGCGACAC | -0.0942 |
| CGTCTCGA | -0.00962 |
| CCGGCAAG | -0.101 |
| GTCTATGA | -0.0665 |
| AAATATTG | 0.116 |
| AGGCTAAA | 0.0237 |
| CACCGTTA | -0.267 |
| AGGCGCTA | 0.0978 |
| CACTCATG | 0.0264 |
| CTTGCACC | 0.0381 |
| ACGCACAG | -0.124 |
| CCGCCCAC | 0.0451 |
| GACATTCC | -0.0198 |
| CAAAACAA | -0.0517 |

| Sequence | PBM E-score |
| --- | --- |
| GGGTGACC | -0.0279 |
| CCTGGGAG | -0.108 |
| CGAGGATC | 0.0916 |
| AAGGGCTA | -0.138 |
| AAGATCAC | -0.008 |
| CCAGGCTC | 0.0327 |
| GCCAGGTA | 0.0834 |
| TATCCGAA | 0.177 |
| CCGGGTTC | 0.241 |
| GAGAGCCA | -0.04 |
| GTCGCGAA | -0.0461 |
| ACCGACAT | -0.0514 |
| ACCAAACC | -0.0634 |
| CGAACAGA | 0.0941 |
| GAAGATCA | 0.0886 |
| GCGATGCA | -0.273 |
| AACTATAC | 0.0928 |
| AACGTTAC | -0.0809 |
| GACCACCA | 0.15 |
| AGGTCTTC | -0.207 |
| GATCTTTA | 0.0742 |
| ATTGGATG | 0.183 |
| ATGTCCTG | 0.0222 |
| AAAATCAT | -0.252 |
| AATGGAGT | -0.197 |

| Sequence | PBM E-score |
| --- | --- |
| ACCTAGCT | -0.115 |
| GGGCGATA | -0.0581 |
| CAGATAAA | -0.105 |
| TCAGACAA | -0.16 |
| AAACCCGG | 0.0332 |
| AATTTCTA | 0.11 |
| GTGCCCCA | -0.0431 |
| AAGCAGCA | -0.176 |
| ATTAGTCA | 0.0953 |
| ACTATTAA | 0.0477 |
| AGAAATGC | 0.0466 |
| ATTCTGGA | 0.18 |
| CGAGGAAC | 0.0491 |
| AATCGCAG | -0.102 |
| CGGTCTGA | -0.0485 |
| AATATCGG | 0.0858 |
| GTTGCCAA | 0.177 |
| CACATACG | 0.0844 |
| CGTGTACC | -0.104 |
| GGCCATTA | -0.196 |
| CAGTTGGC | 0.155 |
| ACGCGATA | -0.0739 |
